Some of the results follow. At the low end of the ranking the order means little.
target: T1, ETS1 (UniProt P14921); experiment: custom PBM; settings: custom protein-binding microarray; buffer, salt, pH and temperature not stated; high values mean tight binding; double strand, one strand shown
T1 sequence: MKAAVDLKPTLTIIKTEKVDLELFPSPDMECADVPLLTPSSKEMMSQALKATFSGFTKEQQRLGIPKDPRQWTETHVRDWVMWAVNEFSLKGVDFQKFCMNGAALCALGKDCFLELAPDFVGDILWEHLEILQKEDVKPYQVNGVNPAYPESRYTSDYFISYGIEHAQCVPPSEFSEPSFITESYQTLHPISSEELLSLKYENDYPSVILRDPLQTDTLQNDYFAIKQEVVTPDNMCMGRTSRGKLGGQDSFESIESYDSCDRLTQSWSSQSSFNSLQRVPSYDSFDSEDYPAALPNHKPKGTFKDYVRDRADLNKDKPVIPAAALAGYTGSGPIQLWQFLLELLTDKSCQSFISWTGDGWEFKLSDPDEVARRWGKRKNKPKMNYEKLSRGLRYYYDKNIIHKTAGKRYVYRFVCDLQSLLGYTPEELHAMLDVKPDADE

Row | Sequence | binding signal (log fluorescence intensity)
1 | TAAAGTGAAGACGGTTGTGGTAGTTCCGGGTATTAAGTCTTGATTCGCTTGACGCTGCTG | 8.37
2 | TGTCGGGTAAGGGAATGTAGATCACGTGAATGAAACGTCTTGATTCGCTTGACGCTGCTG | 8.41
3 | CACAATTTTTACAGTAATGTAACACGCGTAACTCCTGTCTTGATTCGCTTGACGCTGCTG | 8.37
4 | TGTCGGGTAAGGTAATGTAGATCACGTGAATGAAAAGTCTTGATTCGCTTGACGCTGCTG | 8.26
5 | TGTCGGGTAAGGGAATGTAGATCACTTGAATGAAAAGTCTTGATTCGCTTGACGCTGCTG | 8.32
6 | CTGGGACTTGACCCACCTCTGCCACGTGGGTCGTTTGTCTTGATTCGCTTGACGCTGCTG | 8.09
7 | GATTAGTTTCTGCCCTTATTCGCACGTGCCATAACAGTCTTGATTCGCTTGACGCTGCTG | 8.12
8 | CGGAAGTGTCGTAAACGTCGGATATCCGGTTCTTCAGTCTTGATTCGCTTGACGCTGCTG | 12
9 | TAAAAGGAAGACGGTTGTGGTAGTTCCGGGTATTAAGTCTTGATTCGCTTGACGCTGCTG | 8.73
10 | CTGGGACTTGACCCAACTCTGCCACGAGGGTCGTTTGTCTTGATTCGCTTGACGCTGCTG | 8.16
11 | TAAAGGGAAGACGGTTGCGGTAGTTCCGGGTATTAAGTCTTGATTCGCTTGACGCTGCTG | 8.58
12 | GCTGCTGCGGTGCATACCCCACCGGATCTGACCCCGGTCTTGATTCGCTTGACGCTGCTG | 8.28
13 | GGAAAAAGGCCCAGTGTAACACCGGAAGTGGGCTTAGTCTTGATTCGCTTGACGCTGCTG | 12
14 | CGGCAGTGTCGTAAACGTCGGATATCCGGTTCTTCTGTCTTGATTCGCTTGACGCTGCTG | 11.7
15 | TACTGACGTATATATGCGAATGCACATGAATAGACCGTCTTGATTCGCTTGACGCTGCTG | 8.24
16 | TAAAGGGAAGACGGTTGTGGTAGTTCCGGGTATTAAGTCTTGATTCGCTTGACGCTGCTG | 8.52
17 | CTGGGACTCGACCCAACTCTGCCACGTGGGTCGTTTGTCTTGATTCGCTTGACGCTGCTG | 8.18
18 | TACTGACTTATATATGCGAATGCACATGAACAGACCGTCTTGATTCGCTTGACGCTGCTG | 8.02
19 | GATTAATTTCTGCCCTTATTCGCACGTGTCATAACAGTCTTGATTCGCTTGACGCTGCTG | 8.12
20 | GATTAATTTCTGCCCTTATTCGCACGTGCGATAACAGTCTTGATTCGCTTGACGCTGCTG | 8.09
21 | TACTGACTTATATATGCGAACGCACATGAATAGACCGTCTTGATTCGCTTGACGCTGCTG | 8.19
22 | CTGGGACTTGACCCAACTCTGACACGTGGGTCGTTTGTCTTGATTCGCTTGACGCTGCTG | 8.26
23 | CAGCAGAGGACTTCTTCCCTGAAGCAATTGATAACCGTCTTGATTCGCTTGACGCTGCTG | 8.33
24 | TAGAGGGAAGACGGTTGTGGTAGTTCCGGGTATTAAGTCTTGATTCGCTTGACGCTGCTG | 8.62
25 | TGTCGGGTAAGGGAATGTGGATCACGTGAATGAAAAGTCTTGATTCGCTTGACGCTGCTG | 8.13
26 | CTGGGACTTGCCCCAACTCTGCCACGTGGGTCGTTTGTCTTGATTCGCTTGACGCTGCTG | 8.29

Row | Sequence | binding signal (log fluorescence intensity)
27 | GTGTATAGGATCCCTTCCAACACACGTGTTAAAATGGTCTTGATTCGCTTGACGCTGCTG | 8.2
28 | GTGTGTAGGATCCCATCCAACACACGTGTTAAAATGGTCTTGATTCGCTTGACGCTGCTG | 8.23
29 | CTGCATAGGACTTCTTCCCTGAAGCAATTGATAACCGTCTTGATTCGCTTGACGCTGCTG | 8.29
30 | TACTGACTTTTATATGCGAATGCACATGAATAGACCGTCTTGATTCGCTTGACGCTGCTG | 8.18
31 | GCTGCTGCGGTGCATACCCCACCGGATGTGACGCCGGTCTTGATTCGCTTGACGCTGCTG | 10
32 | TACTGACTTATATATGCGAATGCACAGGAATAGACCGTCTTGATTCGCTTGACGCTGCTG | 8.3
33 | CACAATTTTTACAGTAATGTAGCACGGGTAACTCCTGTCTTGATTCGCTTGACGCTGCTG | 8.37
34 | GGAAAAAGGCCCCGGGTAACACCGGAAGTGGGCTTAGTCTTGATTCGCTTGACGCTGCTG | 12.6
35 | TCCGGCTACCTGCTCCACCCACTTCAGGCCTTGTAGGTCTTGATTCGCTTGACGCTGCTG | 8.27
36 | CAGCATAGGACTACTTCCCTGAAGCAATTGATAACCGTCTTGATTCGCTTGACGCTGCTG | 8.63
37 | GTGTATAGGATCCCATCCCACACACGTGTTAAAATGGTCTTGATTCGCTTGACGCTGCTG | 8.26
38 | TACTGACTTATATATGCGAATGCACATGAATACACCGTCTTGATTCGCTTGACGCTGCTG | 8.21
39 | CAGCATAGGACTTCTTCCCTGAAGCAATTGATAACAGTCTTGATTCGCTTGACGCTGCTG | 8.25
40 | GTGTATACGATCCCATCCAACACACGTGTTAAAATGGTCTTGATTCGCTTGACGCTGCTG | 7.71
41 | CTGGAACTTGACCCAACTCTGCCACGTGGGTCGTTTGTCTTGATTCGCTTGACGCTGCTG | 8.31
42 | CTGGGACTTGACCCAACTCTGCCACGTAGGTCGTTTGTCTTGATTCGCTTGACGCTGCTG | 8.41
43 | GCTGCTGCGCTGCATACCCCACCGGATGTGACCCCGGTCTTGATTCGCTTGACGCTGCTG | 10.1
44 | GGAAAAAGGCCCAGAGTAACACCGGAAGTGGGCTTAGTCTTGATTCGCTTGACGCTGCTG | 12
45 | GCTGGTGCGGTGCATACCCCACCGGATGTGACCCCGGTCTTGATTCGCTTGACGCTGCTG | 10.2
46 | CTGAGACTTGACCCAACTCTGCCACGTGGGTCGTTTGTCTTGATTCGCTTGACGCTGCTG | 8.15
47 | TACTGACTTATATATGCGAATGTACATGAATAGACCGTCTTGATTCGCTTGACGCTGCTG | 8.31
48 | GTGTATAGGATCCCATCCAACACACGTGTTAAACTGGTCTTGATTCGCTTGACGCTGCTG | 8.21
49 | TGTCGGGTAAGGGAATGTAGATCACGTGAACGAAAAGTCTTGATTCGCTTGACGCTGCTG | 8.23
50 | GATTAATTTCTGCCCTTATTCGCACCTGCCATAACAGTCTTGATTCGCTTGACGCTGCTG | 8.12
51 | CCCGGCTACCAGCTCCACCCACTTCAGGCCTTGTAGGTCTTGATTCGCTTGACGCTGCTG | 8.04
52 | TGTCGGGTAAGGGAATGTAGATCACGTGAATGAATAGTCTTGATTCGCTTGACGCTGCTG | 8.24

Reference: article PMC6602471
